{"source": "PubChem BioAssay AID1347120", "about": "(National Center for Advancing Translational Sciences (NCATS), 2019)", "note": "Screen size: about 390,000 compounds; about 930 (0.24%) were called active. The shares of active, inactive and inconclusive entries below differ from those in the screen. Calls follow the shape of the dose curve; as a rule, active = well fitted activation curve with a large enough effect; inconclusive = small, poorly fitted or top-dose-only effect; inactive = no such curve, though single readings can be large or run the other way. Potencies of inconclusive entries are doubtful fits and often do not repeat. Potency is read from the fitted curve at half-maximal effect; tags tell the direction and shape of the fitted curve."}
{"test": "qHTS for Suppressors of FUS Proteinopathy: Primary screen using FUS-linked yeast assay; also: nearly all actives have a fitted effect of over 55% in size;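 as to growth rescue (activation): plate controls were DMSO vehicle for no effect and reference control for full effect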", "conditions": "S. cerevisiae FUS-expressing, OD600, 24 h; Potency: growth rescue; growth rescue (activation): at 76.6 µM (top of the series)", "outline": "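Cultures pregrown in 2.5% raffinose medium are shifted to minimal medium containing 2% galactose to express toxic FUS. Compounds are tested at several concentrations. After 24hr at 30C, growth is quantified at 600 nm absorbance.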"}
{"smiles": "Cc1ccc2nc(-c3ccc(NC(=O)c4ccco4)cc3)[nH]c2c1", "Potency": "inconclusive: 25.1 µM [activator, partial curve, poor fit]"}
{"smiles": "c1cncc(-c2nc(NCC3CCCO3)c3ccccc3n2)c1", "note": "(stereo not drawn)", "growth rescue (activation)": "inactive: -7.86%"}
{"smiles": "CSc1nnc(C)c(=O)n1COC(=O)COc1ccccc1F", "Potency": "inconclusive: 0.891 µM [activator, partial curve, poor fit]"}
{"smiles": "COc1ccc(NS(=O)(=O)c2ccc(NS(=O)(=O)c3ccc4c(c3)OCCO4)cc2)cc1", "Potency": "inconclusive: 28.2 µM [activator, single point]"}
{"smiles": "Cc1ccc(S(=O)(=O)c2c(N)n(CCC(C)C)c3nc4ccccc4nc23)cc1", "Potency": "inconclusive: 31.6 µM [activator, partial curve, poor fit]"}
{"smiles": "COc1ccc(N2CCN(C(=O)CCn3cnc4onc(-c5ccc(F)cc5)c4c3=O)CC2)cc1", "Potency": "inconclusive: 15.8 µM [activator, partial curve, poor fit]"}
{"smiles": "Cc1cc(C)cc(N2CCn3c2nc2c3c(=O)n(CCc3ccccc3)c(=O)n2C)c1", "growth rescue (activation)": "inactive: -4.01%"}
{"smiles": "COCCNC(=O)C1CC(c2ccc(F)cc2)=NO1", "note": "(stereo not drawn)", "growth rescue (activation)": "inconclusive: 62% [activator]"}
{"smiles": "CC1Cc2ccccc2N1C(=O)CCN1C(=O)C2C3C=CC(C3)C2C1=O", "note": "(stereo not drawn)", "Potency": "inconclusive: 10 µM [activator, partial curve, poor fit]"}
{"smiles": "CC(=O)c1c(O)cc(O)cc1CC(=O)O", "growth rescue (activation)": "inactive: -2.86%"}
{"smiles": "CC1=C(C(=O)OC2CCC(C)CC2)C(c2ccc(O)c([N+](=O)[O-])c2)NC(=O)N1", "note": "(stereo not drawn)", "Potency": "inconclusive: 44.7 µM [activator, single point]"}
{"smiles": "CC(=O)NC(Cc1c[nH]c2ccccc12)C(=O)OCC(=O)Nc1ccc2c(c1)OCO2", "note": "(stereo not drawn)", "Potency": "inconclusive: 11.2 µM [activator, single point]"}
{"smiles": "COc1ccc(C2C3=C(CCCC3=O)Nc3n[nH]c(C)c32)cc1OC", "note": "(stereo not drawn)", "Potency": "inconclusive: 50.1 µM [activator, single point]"}
{"smiles": "COc1ccc(NC(=O)CN(C)C(=O)c2cccc(S(=O)(=O)N3CCN(c4ccccc4)CC3)c2)cc1", "Potency": "inconclusive: 28.2 µM [activator, single point]"}
{"smiles": "O=C(CN1C(=O)NC2(CCCCCC2)C1=O)NCc1ccc(Cl)cc1", "growth rescue (activation)": "inactive: 10.4%"}
{"smiles": "CCCCCCCCN1C(=O)[C@@H](CC(=O)NCCCOC)C[C@@]2(C(=O)OC)C1=C[C@H](COCc1ccccc1)O[C@@H]2C", "Potency": "inconclusive: 35.5 µM [activator, partial curve, poor fit]"}
{"smiles": "COC(=O)[C@@]12CCCCN1[C@H](c1ccc(-c3cccc(Cl)c3)c(OC)c1)[C@@H]1C(=O)N(C)C(=O)[C@@H]12", "Potency": "inconclusive: 31.6 µM [activator, partial curve, poor fit]"}
{"smiles": "CC(=O)c1ccc(OCCCC(=O)N2CCN(S(=O)(=O)c3ccc(C)cc3C)CC2)cc1", "Potency": "inconclusive: 22.4 µM [activator, partial curve, poor fit]"}
{"smiles": "CCOC(=O)C1CCN(C(=O)c2oc3ccc4c(c3c2C)C(O)CC2(CCCCC2)O4)CC1", "note": "(stereo not drawn)", "Potency": "inconclusive: 39.8 µM [activator, single point]"}
{"smiles": "Cc1cccc(OCCCN2C(=O)C(=O)c3cc(C)ccc32)c1", "growth rescue (activation)": "inactive: 12.6%"}
{"smiles": "Nc1ccc(Nc2ccccc2)cc1", "Potency": "inconclusive: 2.82 µM [activator, full curve]"}
{"smiles": "CSc1ccccc1NC(=O)CN(c1cccc(C)c1)S(C)(=O)=O", "Potency": "inconclusive: 20 µM [activator, partial curve, poor fit]"}
{"smiles": "CCOC(=O)Cc1cc(=O)n2[nH]c(-c3ccccc3)c(-c3ccccc3)c2n1", "Potency": "inconclusive: 11.2 µM [activator, partial curve]"}
{"smiles": "CCOc1ccc(C2C(C(=O)c3ccc(C)o3)=C(O)C(=O)N2Cc2cccnc2)cc1", "note": "(stereo not drawn)", "Potency": "inconclusive: 31.6 µM [activator, partial curve, poor fit]"}
{"smiles": "Cc1ccc2c(=O)cc(C(=O)NCCc3ccc(S(N)(=O)=O)cc3)oc2c1", "growth rescue (activation)": "inactive: 8.31%"}
{"smiles": "CC(=O)Nc1ccc(-c2ccnc3c2CC(C)(C(=O)Nc2cccc(C(F)(F)F)c2)O3)cc1", "note": "(stereo not drawn)", "Potency": "inconclusive: 35.5 µM [activator, partial curve, poor fit]"}
{"smiles": "Cc1ccc(C(=O)C2=C(O)C(=O)N(Cc3cccnc3)C2c2ccc(OC(C)C)cc2)o1", "note": "(stereo not drawn)", "Potency": "inconclusive: 12.6 µM [activator, partial curve]"}
{"smiles": "Cc1ccc(CNC(=O)c2ccc3c(c2)N(Cc2ccccc2F)C(=O)c2ccccc2S3(=O)=O)cc1", "Potency": "inconclusive: 8.91 µM [activator, partial curve]"}
{"smiles": "O=P(c1ccccc1)(c1ccccc1)C1CCCO1", "note": "(stereo not drawn)", "Potency": "inconclusive: 3.16 µM [activator, partial curve, poor fit]"}
{"smiles": "COCc1cc(CNC(=O)C2CCC(=O)N(Cc3cccc(OC)c3)C2)[nH]n1", "note": "(stereo not drawn)", "growth rescue (activation)": "inactive: -10.1%"}
{"smiles": "COc1ccc(S(=O)(=O)N2CCC(C(=O)NCCC3=CCCCC3)CC2)cc1C", "Potency": "inconclusive: 25.1 µM [activator, partial curve, poor fit]"}
{"smiles": "COc1ccc(/C=C(/NC(=O)c2ccc(Br)cc2)C(=O)Nc2cccc(C(=O)O)c2)cc1", "Potency": "inconclusive: 31.6 µM [activator, single point]"}
{"smiles": "COc1ccc2c(c1)CCCN2C(=O)C1CCCN(S(=O)(=O)c2ccc(C)c(C)c2)C1", "note": "(stereo not drawn)", "Potency": "inconclusive: 22.4 µM [activator, partial curve, poor fit]"}
{"smiles": "COc1ccc(C/C(N)=N/OC(=O)c2cccs2)cc1", "growth rescue (activation)": "inactive: -21.3%"}
{"smiles": "CC(C)c1nnc(N2C(=O)c3oc4ccccc4c(=O)c3C2c2cccc(O)c2)s1", "note": "(stereo not drawn)", "growth rescue (activation)": "inactive: 8.8%"}
{"smiles": "CC(C)N1C(=O)N(c2ccc(Cl)cc2)C(C)(O)CC1(C)C", "note": "(stereo not drawn)", "Potency": "inconclusive: 8.91 µM [activator, full curve]"}
{"smiles": "Nc1[nH]c(C(=O)c2ccccc2)c(-c2cccc3ccccc23)c1C(=O)c1c(-c2ccccc2)[nH]c2ccccc12", "Potency": "inconclusive: 15.8 µM [activator, partial curve, poor fit]"}
{"smiles": "Cc1ccc(C2(c3ccccc3)NC(=O)N(CC(=O)N3CC(=O)Nc4ccccc43)C2=O)cc1C", "note": "(stereo not drawn)", "Potency": "inconclusive: 28.2 µM [activator, single point]"}
